According to US9410958B2, “Alkyne-activated fluorogenic azide compounds and methods of use thereof” (The Regents of the University of California, priority 2014, dated 2016):

System: Mycobacterium smegmatis, Corynebacterium glutamicum and Listeria monocytogenes
Assay: Peptidoglycan labeling with cyclooctyne D-amino acids and azido-PEG3-carboxyrhodamine 110
Settings: 5 mM D-amino acid, copper-free reaction with 20 μM azido-PEG3-carboxyrhodamine 110
Procedure: Metabolic incorporation of 12-14 into the cell walls of the Gram-positive bacteria Mycobacterium smegmatis, Corynebacterium glutamicum and Listeria monocytogenes was tested. The bacteria were grown for one doubling time in the presence of 5 mM 12, 13 or 14, washed to remove excess amino acid, and then reacted with 20 μM commercially available azido-PEG3-carboxyrhodamine 110, a reagent previously used to image alkyne-funtionalized D-alanine derivative (alkDala)-labeled PG under copper-catalyzed conditions. The cells were washed to remove excess probe, fixed, and analyzed by flow cytometry and microscopy (FIGS. 19-21). The fluorescence intensities observed correlated with the relative reactivities of the parent cyclooctynes. […] Thus, cyclooctyne D-alanine analogs 13 and 14 enable PG imaging with the same sensitivity as the earlier methods, but without the need for a cytotoxic copper catalyst.
(C. glutamicum). […] This wash process was repeated twice more.

Row | Structure (SMILES) | fluorescence intensity of labeled bacteria
1 | NC(CNC(=O)OC[C@H]1[C@@H]2CCC#CCC[C@@H]21)C(=O)O (some centres unmarked) [Compound 13] | comparable fluorescence intensity to cells metabolically labeled with alkDala
2 | NC(CNC(=O)OC[C@@H]1[C@@H]2CCC#CCC[C@@H]21)C(=O)O (some centres unmarked) [Compound 14] | comparable fluorescence intensity to cells metabolically labeled with alkDala
